Results as given in article PMC9911399, “Two distinct binding modes provide the RNA-binding protein RbFox with extraordinary sequence specificity”.
Positions count from the first letter of the chain named. Some of the results follow.

T1: RBFOX1 RRM (Homo sapiens, UniProt Q9NWB1 109-208)
T1 sequence: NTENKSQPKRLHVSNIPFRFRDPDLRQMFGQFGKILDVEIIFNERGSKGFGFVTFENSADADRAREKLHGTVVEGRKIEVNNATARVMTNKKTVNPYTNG

B1: AAAAACG (DNA:RNA)
RNA: GGGAGACCGGAAUUCAGAUUGUCCAAAAACGUUAAAUCCCGUCGUAGCCACCA
DNA 1: CAATCTGAATTCCGGTCTCCC
DNA 2: TGGTGGCTACGACGGGATT
B2: GCUAAUC (DNA:RNA)
RNA: B1 RNA with A25G, A26C, A27U, C30U, G31C
DNA 1: CAATCTGAATTCCGGTCTCCC
DNA 2: TGGTGGCTACGACGGGATT
B3: AUUCUGU (DNA:RNA)
RNA: B1 RNA with A26U, A27U, A28C, A29U, C30G, G31U
DNA 1: CAATCTGAATTCCGGTCTCCC
DNA 2: TGGTGGCTACGACGGGATT
B4: ACCAUUC (DNA:RNA)
RNA: B1 RNA with A26C, A27C, A29U, C30U, G31C
DNA 1: CAATCTGAATTCCGGTCTCCC
DNA 2: TGGTGGCTACGACGGGATT
B5: AUACAGC (DNA:RNA)
RNA: B1 RNA with A26U, A28C, C30G, G31C
DNA 1: CAATCTGAATTCCGGTCTCCC
DNA 2: TGGTGGCTACGACGGGATT
B6: UUUAAUA (DNA:RNA)
RNA: B1 RNA with A25U, A26U, A27U, C30U, G31A
DNA 1: CAATCTGAATTCCGGTCTCCC
DNA 2: TGGTGGCTACGACGGGATT
B7: UUCUCCA (DNA:RNA)
RNA: B1 RNA with A25U, A26U, A27C, A28U, A29C, G31A
DNA 1: CAATCTGAATTCCGGTCTCCC
DNA 2: TGGTGGCTACGACGGGATT
B8: GACUGGC (DNA:RNA)
RNA: B1 RNA with A25G, A27C, A28U, A29G, C30G, G31C
DNA 1: CAATCTGAATTCCGGTCTCCC
DNA 2: TGGTGGCTACGACGGGATT
B9: GACGGAG (DNA:RNA)
RNA: B1 RNA with A25G, A27C, A28G, A29G, C30A
DNA 1: CAATCTGAATTCCGGTCTCCC
DNA 2: TGGTGGCTACGACGGGATT
B10: GAAGUAA (DNA:RNA)
RNA: B1 RNA with A25G, A28G, A29U, C30A, G31A
DNA 1: CAATCTGAATTCCGGTCTCCC
DNA 2: TGGTGGCTACGACGGGATT
B11: CGCUUAU (DNA:RNA)
RNA: GGGAGACCGGAAUUCAGAUUGUCCCGCUUAUUUAAAUCCCGUCGUAGCCACCA
DNA 1: CAATCTGAATTCCGGTCTCCC
DNA 2: TGGTGGCTACGACGGGATT
B12: CAGUACC (DNA:RNA)
RNA: B1 RNA with A25C, A27G, A28U, G31C
DNA 1: CAATCTGAATTCCGGTCTCCC
DNA 2: TGGTGGCTACGACGGGATT
B13: AUGGUUA (DNA:RNA)
RNA: B1 RNA with A26U, A27G, A28G, A29U, C30U, G31A
DNA 1: CAATCTGAATTCCGGTCTCCC
DNA 2: TGGTGGCTACGACGGGATT
B14: CGCCAUA (DNA:RNA)
RNA: B11 RNA with U28C, U29A, A30U, U31A
DNA 1: CAATCTGAATTCCGGTCTCCC
DNA 2: TGGTGGCTACGACGGGATT
B15: AGCACCC (DNA:RNA)
RNA: B1 RNA with A26G, A27C, A29C, G31C
DNA 1: CAATCTGAATTCCGGTCTCCC
DNA 2: TGGTGGCTACGACGGGATT
B16: UUUCACC (DNA:RNA)
RNA: B1 RNA with A25U, A26U, A27U, A28C, G31C
DNA 1: CAATCTGAATTCCGGTCTCCC
DNA 2: TGGTGGCTACGACGGGATT
B17: AAACUUU (DNA:RNA)
RNA: B1 RNA with A28C, A29U, C30U, G31U
DNA 1: CAATCTGAATTCCGGTCTCCC
DNA 2: TGGTGGCTACGACGGGATT
B18: UGAUGGA (DNA:RNA)
RNA: B11 RNA with C25U, C27A, U29G, A30G, U31A
DNA 1: CAATCTGAATTCCGGTCTCCC
DNA 2: TGGTGGCTACGACGGGATT
B19: CUUGGCC (DNA:RNA)
RNA: B1 RNA with A25C, A26U, A27U, A28G, A29G, G31C
DNA 1: CAATCTGAATTCCGGTCTCCC
DNA 2: TGGTGGCTACGACGGGATT
B20: AGCACUG (DNA:RNA)
RNA: B1 RNA with A26G, A27C, A29C, C30U
DNA 1: CAATCTGAATTCCGGTCTCCC
DNA 2: TGGTGGCTACGACGGGATT

molecular target: T1, RBFOX1 RRM; test: EMSA; HiTS-Eq, 1 nM pool, 10 min; buffer printed only for the single-RNA assays: 10 mM Tris pH 7.5, 150 mM NaCl, 3.4 mM EDTA, 0.001% NP-40, 30 C; conditions: tags: His6 N-terminal (pET28a); label: 5' 32P
Outline: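 These values rest on relative association constants, computed from read-count changes of each RNA species versus the control reaction and normalised to the cognate motif. Reads came from free RNA recovered by 8% native PAGE after purified RbFox RRM (wild type or mutant) at increasing concentrations was equilibrated for 10 min in 50 µL with 1 nM of a 5′-radiolabelled pool with 7 randomized nucleotides and DNA-annealed flanks.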

| Binder | binding signal |
| --- | --- |
| B1 | 0.00122 KA relative to UGCAUGU |
| B2 | 0.00596 KA relative to UGCAUGU |
| B3 | 0.00886 KA relative to UGCAUGU |
| B4 | 0.00049 KA relative to UGCAUGU |
| B5 | 0.000179 KA relative to UGCAUGU |
| B6 | 0.00229 KA relative to UGCAUGU |
| B7 | 0.00424 KA relative to UGCAUGU |
| B8 | 0.0237 KA relative to UGCAUGU |
| B9 | 0.0118 KA relative to UGCAUGU |
| B10 | 0.00635 KA relative to UGCAUGU |
| B11 | 0.00715 KA relative to UGCAUGU |
| B12 | 0.00221 KA relative to UGCAUGU |
| B13 | 0.00772 KA relative to UGCAUGU |
| B14 | 0.00265 KA relative to UGCAUGU |
| B15 | 0.00759 KA relative to UGCAUGU |
| B16 | 0.00771 KA relative to UGCAUGU |
| B17 | 0.000979 KA relative to UGCAUGU |
| B18 | 0.00526 KA relative to UGCAUGU |
| B19 | 0.0188 KA relative to UGCAUGU |
| B20 | 0.00891 KA relative to UGCAUGU |
